# In PubChem BioAssay AID686978 (National Center for Advancing Translational Sciences (NCATS), 2013):
# Hit rate of the full screen: of about 420,000 compounds, about 64,000 (15%) were called active. The shares of active, inactive and inconclusive entries below differ from those in the screen. The call rests on the fitted dose curve; in most records, active means well fitted inhibition curve with a large enough effect; inconclusive means small, poorly fitted or top-dose-only effect; inactive means flat fitted curve, though single readings scatter. No potency is given beside an inconclusive call; the fits are too rough.
# Test: qHTS for Inhibitors of human tyrosyl-DNA phosphodiesterase 1 (TDP1): qHTS in cells in absence of CPT; further: nearly all actives have a fitted effect of over 55% in size
# Conditions: DT40 Tdp1-/- hTDP1 cells, no CPT, ATP luminescence, 48 h; activity change, negative = growth inhibition: at 46.2 µM (top of the series) unless noted
# Summary of the method: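 Growth of hTDP1-complemented DT40 Tdp1-knockout cells is measured by ATP luminescence after at least 48 hr compound exposure at 37 °C, with DMSO substituting for the 20 nM CPT used in the parallel screen.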
# On the % scale 0 is the no-effect control and ±100 the full control effect; potency means the concentration at half of the fitted maximal effect; tags describe the fitted curve by direction and shape.
Structure (SMILES),Potency,"activity change, negative = growth inhibition"
COC(=O)c1cc2oc3ccccc3c2n1CC(=O)Nc1ccc(Cl)cc1F,"inconclusive [inhibitor, partial curve]",
Cc1ccc(NC(=O)CC(NCC2CCCO2)C(=O)O)cc1C (configuration not stated),,inactive: 13.8%
CC(OC(=O)c1ccc2noc(-c3ccccc3)c2c1)C(N)=O (configuration not stated),"inconclusive [inhibitor, single point]",
O=c1oc2ccccc2c(Nc2ccccc2)c1CN1CCCCC1,,inconclusive: -30.2% [inhibitor]
CCC1=NN(C(=O)c2cccc([N+](=O)[O-])c2)C(O)(c2ccc(C)cc2)C1 (configuration not stated),"inconclusive [inhibitor, partial curve, poor fit]",
O=C(c1cccc(S(=O)(=O)N2CCc3ccccc32)c1)N1CCOCC1,"inconclusive [inhibitor, single point]",
Fc1ccc2nc(Nc3nc4cc5c(cc4s3)OCO5)sc2c1,"inconclusive [inhibitor, single point]",
COc1ccc(-n2c(=O)c(CCc3ccccc3)nc3cncnc32)cc1,,inactive: -3.26%
Cc1ccc2nc(NC(=O)c3ccc(Cl)s3)sc2c1,"inconclusive [inhibitor, single point]",
O=C(c1ccc([N+](=O)[O-])o1)N1CCN(c2nc3c(F)cc(F)cc3s2)CC1,"inconclusive [inhibitor, single point]",
CCOC(=O)C1CCN(C(=S)Nc2ccc(C)cc2)CC1,,inactive: -11.4%
Cc1ccc2[nH]c(=O)c(C(c3nnnn3CC3CCCO3)N3CCCc4ccccc43)cc2c1 (configuration not stated),"inconclusive [inhibitor, single point]",
COc1ccc(/C=C/C(=O)Oc2ccc(C=O)cc2OC)cc1,,inactive: -19.2%
COc1cccc2c1cc1c(=O)n(CC(=O)NCc3ccc(C)o3)nc(C)n12,,inactive: -7.77%
CC(NC(=O)c1sc2ccccc2c1Cl)C1CCCO1 (configuration not stated),"inconclusive [inhibitor, single point]",
CCC(=O)Nc1cccc(-c2ccc(N3CCC(C)CC3)nn2)c1,active: 23.1 µM,
CCN(CC)c1ccc(NC(=S)NCC2CCCO2)cc1 (configuration not stated),"inconclusive [inhibitor, partial curve]",
COc1ccc2c(c1)O[C@@]1(CCCC[C@@H]1C)CC2=O,"inconclusive [inhibitor, single point]",
COC(=O)C1C(=O)C2=C(CC1C)NC(=O)CC2c1cccc(C)c1 (configuration not stated),"inconclusive [inhibitor, partial curve, poor fit]",
O=C(NC(Cc1c[nH]c2ccccc12)C(=O)O)/C(=C/c1ccco1)NC(=O)c1ccccc1 (configuration not stated),,inactive: -0.131%
CC(O)c1nc2ccccc2n1CCCCOc1ccccc1 (configuration not stated),active: 14.6 µM,
Cc1cc(C)c(C(O)c2ncc(-c3cccc4ccccc34)[nH]2)c(C)c1 (configuration not stated),"inconclusive [inhibitor, partial curve]",
O=C(NC1CCN(Cc2ccccc2)CC1)c1ccc(N2CC3CC(C2)c2cccc(=O)n2C3)c([N+](=O)[O-])c1 (configuration not stated),"inconclusive [inhibitor, single point]",
C(=Nc1cccc2c(N=Cc3ccco3)cccc12)c1ccco1,,inactive: -1.46%

Structure (SMILES),Potency,"activity change, negative = growth inhibition"
CCc1ccc(/C=N/NC(=O)c2ccccn2)cc1,"inconclusive [inhibitor, partial curve]",
Cc1ccc(NC(=O)CSc2ccc(-c3ccccn3)nn2)cc1,"inconclusive [inhibitor, single point]",
N#Cc1c(N)[nH]c(C(=O)c2ccccc2)c1-c1ccccc1Br,"inconclusive [inhibitor, single point]",
COc1ccc(CCNC(=O)c2ccc3c(c2)N(Cc2ccc(F)cc2)C(=O)CS3)cc1OC,active: 16.4 µM,
C=CCN(CC=C)C(=O)CN1C(=O)NC(Cc2c[nH]c3ccccc23)C1=O (configuration not stated),,inactive: -15.1%
Cc1cccc(-c2nc(CCNC(=O)Cc3ccccc3)cs2)c1,active: 20.6 µM,
CCn1cc(/C=C(\NC(=O)c2ccc(OC)c(OC)c2)C(=O)N2CCN(C)CC2)c2ccccc21,,inactive: 7.88%
Cc1ccc(SC2=C(C(=O)O)CCCC2)cc1,,inactive: -22.4%
O=C(COC(=O)c1cc2ccccc2oc1=O)c1cccc([N+](=O)[O-])c1,,inactive: -20%
Cc1ccc(Cn2ccc(NC(=O)c3cc(C4CC4)on3)n2)cc1,,inactive: 2.29%
CC(O)Cc1nsc(NC(=O)c2ccc(Br)o2)n1 (configuration not stated),active: 2.31 µM,
Cc1cc(SCC(=O)N(C)C2CCS(=O)(=O)C2)nc2c(C)cccc12 (configuration not stated),"inconclusive [inhibitor, single point]",
CC(=O)/C(=N\Nc1ccccc1)Sc1cccc2cccnc12,,inactive: -11.6%
Fc1cccc2sc(Nc3nc4cc5c(cc4s3)OCCO5)nc12,"inconclusive [inhibitor, single point]",
O=C(c1ccc2c(=O)n3c(nc2c1)CCCCC3)N1CCN(c2cccc(Cl)c2)CC1,active: 23.1 µM,
O=C(Cc1ccccc1)NNC(=O)c1cnccn1,,inactive: -5.42%
CCC(CO)Oc1cc(NCc2ccc(C)c(C)c2)c2ncn(C(C)C)c2c1 (configuration not stated),"inconclusive [inhibitor, single point]",
Cc1ncccc1C(=O)N1CCCC(C(=O)c2ccc3c4c(cccc24)CC3)C1 (configuration not stated),"inconclusive [inhibitor, single point]",
CC1CCN(S(=O)(=O)c2ccc3c(c2)C(Cl)(Cl)C(=O)N3)CC1,active: 16.4 µM,
CCc1ccccc1NC(=S)N(Cc1cccc(C)c1)c1cccnc1,"inconclusive [inhibitor, single point]",
COc1ccc(CCNC(=O)C(=O)NCC(c2ccco2)S(=O)(=O)c2cccs2)cc1OC (configuration not stated),"inconclusive [inhibitor, single point]",
COc1ccc(CCN2C(=O)CC(N3CCN(S(=O)(=O)c4ccccc4)CC3)C2=O)cc1OC (configuration not stated),"inconclusive [inhibitor, single point]",
CCC(=O)N1CCc2cc(S(=O)(=O)NC(CC(C)C)C(=O)NCCc3ccccc3)ccc21 (configuration not stated),"inconclusive [inhibitor, partial curve, poor fit]",
